Results on 167 variants are retold here after the RNAGym collection of RNA variant scans (doi:10.1101/gad.245936.114).

This sample is rich in variants without activity.

B1: tRNA (parent)
chain: CUCUCGGUAGCCAAGUUGGUUUAAGGCGCAAGACUUUAAUUUAUCACUACGAAAUCUUGAGAUCGGGCGUUCGACUCGCCCCCGGGAGAUUUUUUCCUCGAGCAA

This data set covers variants of B1. The experiment in a line: nonsense suppression (GFP-seq) (ratio to wild type); higher = more function; SUP4oc tRNA, yeast GFP reporter sort-seq. In outline: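 To measure nonsense suppression, tRNA variants from a library carrying ~3% random mutations were integrated into the yeast genome alongside RFP and a GFP ochre reporter under galactose control. Growth took place in raffinose/galactose medium supplemented with 80 mg/L adenine, followed by sorting into GFP/RFP bins and Illumina sequencing of each bin (phred ≥30). For each variant with ≥100 reads and ≥30 cells, the bin median GFP/RFP values were weighted by its estimated cell share per bin and referenced to the unmutated parent tRNA.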
Turning to C5U G10U A14C A87C, the nonsense suppression was at most 0.026. For G18U C64A the value was at most 0.026. Take C1G U4A G25U G67A A74C: the nonsense suppression was at most 0.026. In the case of A14G C77G, the nonsense suppression is at most 0.026. The result for A14U A31G G84A reads at most 0.026.

As to U35G U55C G61C G73U, the nonsense suppression is at most 0.026. In the case of U55A U58G, the nonsense suppression is at most 0.026. On to G26U A33C U70C G85A A87C, for which the nonsense suppression was at most 0.026.

A14U G19C A54C: the nonsense suppression is at most 0.026.

For A13U G28U G73A, the nonsense suppression was at most 0.026. In the case of G18C G67C G85C, the nonsense suppression is at most 0.026. The result for U57G U58G reads at most 0.026.

For A13C G67U C83G, the nonsense suppression was at most 0.026. For the variant G32C G67C U70C C83A, the nonsense suppression is at most 0.026.

With U8C U20A, the nonsense suppression is 0.0281.

In the case of U35C C82A, the nonsense suppression was at most 0.026. For the variant G10U G61C G86U, the nonsense suppression is at most 0.026.

For C3A A31G, the nonsense suppression is at most 0.026. For A30G U76C G84U, the nonsense suppression is at most 0.026. For U4A A9G G73U C77U G86U the value was at most 0.026; for A13C U21A C34U A60U, at most 0.026; for G61A A62U G84U, at most 0.026.

As for C1G G18A, the nonsense suppression was at most 0.026. As for C5U C68G A87U, the nonsense suppression was at most 0.026.

In the case of C3G A14C G26A, the nonsense suppression is at most 0.026. For C29U U76A the value was 0.224; for C1U U2G G18U, at most 0.026. For G7C U57A G61U the value was at most 0.026; for U21A A74C G85C, at most 0.026; for G18A A24C C27A, at most 0.026. The result for G7U G10C U21C C29U G66U reads at most 0.026; that for C1U G19U U21G C27U G66C, at most 0.026; that for A9C U21G A33U G59A U71G G73A, at most 0.026.

For the variant U70G C83U, the nonsense suppression is at most 0.026. In the case of U20C C75A C83A, the nonsense suppression was at most 0.026.

Regarding A31C A74C, the nonsense suppression was at most 0.026. The result for C3U A23U U35C C56U C81U reads at most 0.026; that for G7C U35G, at most 0.026; that for C12G G61C, at most 0.026.

With C11G G67U, the nonsense suppression is at most 0.026. The result for A13U G18U reads at most 0.026; that for C11U A24C A30U G78A, at most 0.026. A24U G26C: the nonsense suppression is at most 0.026. For G7U G18U G65U C81A, the nonsense suppression is at most 0.026. Regarding A9U U57G G65C, the nonsense suppression is at most 0.026. For G28U A62U G84A the value was at most 0.026. In the case of C27U C29U A62C, the nonsense suppression was at most 0.026.

On to C5A G7A G61C G78C, for which the nonsense suppression was at most 0.026. For U20C C27G C29A G59U C75G the value was at most 0.026; for U17C C72G, at most 0.026.

C29U C34U U70A: the nonsense suppression is at most 0.026. With C1U C3G U55C G84A, the nonsense suppression was at most 0.026. In the case of G10U G15U A60C G69C A74U, the nonsense suppression is at most 0.026.

U2C C11A C56G G66U: the nonsense suppression was at most 0.026. The result for C1G C5G C11U A14C U22G reads at most 0.026; that for G25C U58A G59A A62C, at most 0.026; that for U4G C56U, 0.0355. As to U22G U70C, the nonsense suppression is at most 0.026. As to A33G A74U C81A, the nonsense suppression was at most 0.026.

Consider A62U G65U, for which the nonsense suppression is at most 0.026. For C29A C64G the value was at most 0.026; for G10U U57G G66U U76A, at most 0.026; for A9C A33G G84C, at most 0.026. Consider G28U A62C C68U, for which the nonsense suppression is at most 0.026. For C11A G15A A87C the value was at most 0.026.

Take C29A U55C: the nonsense suppression is at most 0.026. With A62G G88U, the nonsense suppression was at most 0.026. The result for U70G G78C C81A G84A reads at most 0.026; that for A23U U57C G61C U76C, at most 0.026. For A54C G59A A60C G73U the value was at most 0.026. Turning to C3U C12A U21G U22C G65A A87G, the nonsense suppression was at most 0.026. For G6U C11G A23C G78A the value was at most 0.026; for C5U G18A, at most 0.026. In the case of U70G U76G C81A G84A, the nonsense suppression was at most 0.026. The result for C5U G61C G67U A74G reads at most 0.026; that for G15U G61C G65A, at most 0.026; that for A14G A62U G66C, at most 0.026.

As to U4C G19C, the nonsense suppression was at most 0.026. As for G15C U16A U22A A24C, the nonsense suppression is at most 0.026.

For the variant G25U G26A A33U U63C C72A, the nonsense suppression is at most 0.026. Take U4A U76A A87G: the nonsense suppression was at most 0.026. The result for G26U C56U reads at most 0.026.

Consider C1U C75G, for which the nonsense suppression is at most 0.026.

On to C3U A14U A33U C34G G65U G66A, for which the nonsense suppression is at most 0.026. The result for C3A reads at most 0.026; that for G59A C83U, at most 0.026; that for U57G A74U, at most 0.026. As to G7C U58G, the nonsense suppression is at most 0.026. The result for C27U G61A G69U reads at most 0.026. For A9G G15C the value was 0.173; for A14G C29A G65A, at most 0.026; for G73C G84A A87C, at most 0.026. G25C A31G C68G: the nonsense suppression was at most 0.026.

As to G25A A60G G65A C82A, the nonsense suppression is at most 0.026. For G65U G85A the value was at most 0.026; for U58A A62U, at most 0.026; for G26A A74C U76C, at most 0.026. Consider G19A G84C, for which the nonsense suppression was at most 0.026.

Take G28A G84C: the nonsense suppression was at most 0.026.

As to C34A A54U U71A C75A, the nonsense suppression was at most 0.026. For U4G C5G U17C U63C A74U, the nonsense suppression was at most 0.026. Consider U57G G67U C82G, for which the nonsense suppression was at most 0.026.

On to C11U G18C G86U, for which the nonsense suppression is at most 0.026. For G84A G88U the value was at most 0.026. Turning to C56A G61A G85A, the nonsense suppression was at most 0.026. For G15A G19C U55C the value was at most 0.026; for U4G U8G G18U A23G C29U G67A C75U, at most 0.026; for C1A U8A U55C A89U, at most 0.026. For U4G U63C C82A the value was at most 0.026; for A23G U63G G69C, at most 0.026. For the variant C72A C81G, the nonsense suppression was at most 0.026.

In the case of U2C C12G A24C A62U C79A, the nonsense suppression is at most 0.026.

Regarding G15U C27G, the nonsense suppression is at most 0.026. The result for G15A A33U A54U A89U reads at most 0.026. As for C12G A31G A62U C77A G78A A89U, the nonsense suppression is at most 0.026. The result for G32A G59A reads at most 0.026; that for C5G U16A U22C U57C C72U A87C, at most 0.026; that for G67U A89G, at most 0.026. For A30G A74G C75A A87U the value was at most 0.026; for C27G A87C, at most 0.026; for C5G U21C A54G U76C, at most 0.026. Consider G26A A74C, for which the nonsense suppression was at most 0.026. For A23C U76G G88A the value was at most 0.026; for U4C G18U, at most 0.026; for C3U A13U, 0.194. The result for U22G G78U reads 0.112.

Take U2C U4G U17A A87U G88A: the nonsense suppression is at most 0.026. Regarding C11A G26U, the nonsense suppression was at most 0.026.

In the case of U20A U55A, the nonsense suppression was at most 0.026. As to U21G A33U U57C U58A A89G, the nonsense suppression is at most 0.026.

Take U22C A33U: the nonsense suppression is 0.202. For A60U G67A U71C C82A G86A the value was at most 0.026; for G15C G65A, at most 0.026.

C3U U20G: the nonsense suppression is 0.194. Take U22C G25U G61U: the nonsense suppression was at most 0.026. For G19U C29U C72G A89U, the nonsense suppression is at most 0.026. The result for G73A A74U A89G reads at most 0.026; that for G26C C34A C83U A89C, at most 0.026. The result for G6A U16G C68U G84U A87G reads at most 0.026. For the variant C5A G15U G88U, the nonsense suppression was at most 0.026.

For the variant C29A U70C, the nonsense suppression was at most 0.026. Turning to A9G C27G C29G G66C, the nonsense suppression is at most 0.026. On to G6U U70C, for which the nonsense suppression was at most 0.026. The result for G18U A33U C56A reads at most 0.026; that for G73A C77A, at most 0.026. With A33C A62C C79G, the nonsense suppression was at most 0.026. In the case of C29U A30G U35A G65C, the nonsense suppression is at most 0.026. On to C3A A33G U63G, for which the nonsense suppression is at most 0.026. The result for U17A G59U reads at most 0.026; that for U2G A33C C77A, at most 0.026; that for C12U A54U, 0.229. Turning to C12U A13C, the nonsense suppression came to 0.2. For C12U C27A G65A G85A the value was at most 0.026; for C27G A30G U57A C77U, at most 0.026; for G28U U57G G85A, at most 0.026.

For the variant A60U C80G C81U, the nonsense suppression was at most 0.026.

G7A A33U U76C A87C: the nonsense suppression is at most 0.026. As to C12G U55C G73U, the nonsense suppression is at most 0.026. The result for A54C A62G G69A reads at most 0.026; that for U16G A33G A54C G78A, at most 0.026; that for G73U U76A, at most 0.026.

Turning to U16G A54U U63C C80G, the nonsense suppression is at most 0.026.

Take U8G A13C G66A C81A: the nonsense suppression was at most 0.026.

With A14U A31G C56A G69A, the nonsense suppression was at most 0.026. On to C1U U4G G78A, for which the nonsense suppression was at most 0.026. For U2G G66C the value was at most 0.026.

In the case of G15A A60U G61U C79U C83A, the nonsense suppression is at most 0.026.
